The RNAGym collection of RNA variant scans (doi:10.1073/pnas.2313332121)
This sample is rich in variants without activity.

B1: TPR 5TU (parent)
chain: GGAUCUUCUCGAUCUAACAAAAAAGACAAAUCUGCCACAAAGCUUGAGAGCAUCUUCGGAUGCAGAGGCGGCAGCCUUCGGUGGCGCGAUAGCGCCAACGUUCUCAACUAUGACACGCAAAACGCGUGCUCCGUUGAAUGGAGUUUAUCAUG

Variants of: B1
Assay: polymerase ribozyme fitness, log enrichment relative to wild type (log ratio); higher = more active; in vitro selection for triplet polymerase activity
Method in brief: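 Only genotypes with ≥10 input reads and ≥1 read per output were kept after Illumina sequencing of input and output libraries. These libraries were PCR-built, transcribed mutants of each subunit of a heterodimeric triplet polymerase ribozyme, each put through one triplicate in vitro selection round with frozen incubation at −7 °C, gel excision of extended constructs, streptavidin-bead capture and RT-PCR. Fitness is a logarithmic ratio of genotype enrichment to wild-type enrichment, from inverse-variance-weighted replicate averages, with the logarithm in base 2.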

| Variant | polymerase ribozyme fitness (log ratio) |
| --- | --- |
| GGAUCUUCUCGAUCUAACAAUAAAGACAAAUCUGCCACAAAGCUUGAGAGCAUCUUCGGAUGCAGAGGCGGCAGCCUUCGGUGGCGCAAUAGCGCCAACGUUCUCAACUAUGACACGCAAAACGCGUGCUCCGUUGAAUGGAGUUUAUCAUG [A21U G88A] | -3.62 |
| GGAUCUUCUCGAUCUAACAAACUAAACAAAUCUGCCACAAAGCUUGAGAGCAUCUUCGGAUGCAGAGGCGGCAGCCUUCGGUGGCGCGAUAGCGCCAACGUUCUCAACUAUGACACGCAAAACGCGUGCUCCGUUGAAUGGAGUUUAUCAUG [A22C A23U G25A] | ≤ -4.2 |
| GGAUCUUCUCGAUCUAACAAACAAGACAAAUCUGCCACAAAGCUUGAGAGCCUCAUCGGAUGCAGAGGCGGCAGCAUUCGAUGGCGCGAUAGCGCCAACGUUCUCAACUAUGACACGCAAAACGCGUGCUCCGUUGGAUGGAGUUUAUCAUG [A22C A52C U55A C76A G81A A137G] | ≤ -4.2 |
| GGAUCUUCUCGAUCUAACAAACAAGACAAGUCUGUCACAAAGCUUGGGAGCAUCUUCGGAUGCAGAGGCGGCAGCCUUCGGUGGCGCGAUAGCGACAACGUUCUCAACUAUGACACGCAAAACGCGUGCUCGGUUGAAUGGAGUUUAUCAUG [A22C A30G C35U A47G C95A C132G] | ≤ -4.2 |
| GGAUCUUCUCGAUCUAACAAACAAGACAAAUCUGCCACAGAGCUUGAGAGCAUCGUCGGAUGCAGAGGCGGCAGCCUUCGGUGGCGCUAUAGCGCAAACGUUCUCAACUAUGACACGCAAAACGCGUGCUCCGUUGAAUGGAGUUUAUCAUG [A22C A40G U55G G88U C96A] | ≤ -4.2 |
| GGAUCUUCUCGAUCUAACAAACAAGACAAAUCUGCCUCAAAGCUUGAGAGCAUCUUCGGAGGCAGAGGCGGCAGCCUUCGGUGGGGCGAUUGCGCCAACGUUCUCAACUAUGACACGCAAAACGCGUGCUCCGUUGAAUGGAGUUAAUCAUG [A22C A37U U61G C85G A91U U146A] | ≤ -4.2 |
| GGAUCUUCUCGAUCUAACAAACAAGACAAAUCUGCCACAACGCUUGAGAGCAUCUUCGGAUGCAGAGUCGGCAGCCUUCGGUGGCGCGAUAGCGCCAACGUUCUCAACUAUGACACGCAAAACGCGUGCUCCGUUGAAUGGAGGUUAUCAUG [A22C A41C G68U U144G] | ≤ -4.2 |
| GGAUCUUCUCGAUCUAACAAUAAAGACAAAUCUGCCACAAAGCUAGAGAGCAUCUUCGGAUGCAGAGGCGGCAGCCUUCGGUGGCGCGAUUGCGCCAACGUUCUCAACUAUGACACGCAAAACGCGUGCUCCGUUGAAUGGAGUUUAUCAUG [A21U U45A A91U] | ≤ -4.2 |
| GGAUCUUCUCGAUCUAACAAUAAAGACAAAUCUGCCACAAAGCUUGAGAGCAUCGUCGGGUGCAGAGGCGGCAGCCUUCGGUGGCGAGAUAGCGCCAACGUUCUCAACUAUGACACGCAAAACGCGUGCUCCUUUGAAUGGAGUUUAUCAUG [A21U U55G A60G C87A G133U] | ≤ -4.2 |
| GGAUCUUCUCGAUCUAACAAACAAGACAAGUCUGCCACAAAGCUUGAGAGCAUCUUCGGAUGCAGAGGCGGCAGCCUUCGGUGGCACGAUAGCGCCAACGUGCUCAACUAUGACACGCAAAUCGCGUGCUCCGUUGAAUGGAGUUUAUCAUG [A22C A30G G86A U102G A122U] | ≤ -4.2 |
| GGAUCUUCUCGAUCUAACAAACAAGACAACUCUGCCACAAAGCUUGAGAGCAUCUUCGGAAGCAGAGGGGGCAGCUUUCGGUGGCGCGAUAGCGCCUACGUUCUCAACUAUGACUCGCAAAACGCGUGCUCCGUUGAAUGGCGUUUAUCUUG [A22C A30C U61A C69G C76U A97U A115U A142C A150U] | ≤ -4.2 |
| GGAUCUUCUCGAUCUAACAAACAAGACCAAUCUGCCACAAAGCUUGAGAGCAUCUUCGGAGGCAGAGGCGGCAGCCUUCGGUGGCGCGAUCGCGUCAGCGUUCUCAACUAUGACACGCAAAACGCGUGCUCCGUUGAAUGGAGUUUAUCAUG [A22C A28C U61G A91C C95U A98G] | ≤ -4.2 |
| GGAUCUUCUCGAUCUAACAAUAAAGACAAAUCUGCCACAAAGCUUGAGAGCAUCUACGGAUGCAGGGACGGCAGCCUUCGGUGACUCGAUAGCGCCAACGUUAUCAACUAUGACACGCAAAACGCGUGCUCCGUUGAAUGGAGUUUAUCAUG [A21U U56A A66G G68A G84A G86U C103A] | ≤ -4.2 |
| GGAUCUUCUCGAUCUAACAAACAAGACAUAUCUGCCACAAAGCUUGAAAGCAUCUUCGGAUGCAGAGGCGGCAGCCUUCGGUGGCGCGAUAGCGCCAACGUUCUCAACUAUGACACGCAAAACCCGUGCUCCGUUGAAUGGAGUUUAUCAUG [A22C A29U G48A G124C] | ≤ -4.2 |
| GGAUCUUCUCGAUCUAACAAACAAGACAAAUCUGCCACAAAGCUUGAGAGCCUCUUCGGAUGCAGAGGCGGCAGCCUUCGGUGGCGCGAUAGCCCCAACGUUCUCAACUAUGACACGCAAAACGCGUGCUCCGUUUAAUGGAGUUUAUCAUG [A22C A52C G94C G136U] | ≤ -4.2 |
| GGAUCUUCUCGAUCUAACAAUAAAGACAAAUCUGCCACAAAGCUUGAGAGCAUCUUCGGAUACAGAAGCGGCAGCCUUCGGUGGCGCGAUAUCGCCAACGUUCUCAACUAUGACACGCAAAACGCGUGCUCCGUUGAAUGGAGUUUAUCAUU [A21U G62A G67A G92U G152U] | ≤ -4.2 |
| GGAUCUUCUCGAUCUAACAAACAAGACCAAUCUGCCACAAAGCUUGAGAGCAUCUUCGGCUGCAGAGGCGGCAGCCUUCGGUGGCGCUAUAGAGCCAACGUUCUCAACGAUGACACGCAAAACGCGUGCUCCGUUGAAUGGAGUUUAUCAUG [A22C A28C A60C G88U C93A U109G] | ≤ -4.2 |
| GGAUCUUCUCGAUCUAACAAACAAGACGAAUCUGCAACAAAGCUUGAGAGCAUCAUCGGAUGCAGAGGCGGCAGCCUUCGGUGGCGAGAUAGCGCCAACGUUCUCAACUAUGACACGGAAAACGCGUGCUCCGUUGAAUGGAGUUUAUCAUG [A22C A28G C36A U55A C87A C118G] | ≤ -4.2 |
| GGAUCUUCUCGAUCUAACAAUAAAGACAAAUCGGCCACAAAGCUUGAGCCCAUAUUCGGAUGCAGAGGCGGCAGCCUUCGGGGGCGCGAUAUCGCCAACGUUCUCAACUAUGACACGCAAAACGCGUGCUCCGUUGAAUGGAGUUUAUCAUG [A21U U33G A49C G50C C54A U82G G92U] | ≤ -4.2 |
